# Laboratory results reported in patent US11000038B2, “Pyridone compounds and agricultural and horticultural fungicides containing the same as active ingredients” (priority 2017, dated 2021).
# Legend:
# [1] = tested on: wheat brown rust fungi (Puccinia recondita); test: Test Example E: wheat brown rust, spray treatment of wheat plants; assay type: in vivo; conditions: wheat brown rust, spray treatment
# [2] = tested on: gray mold fungi (Botrytis cinerea); test: Test Example B: tomato gray mold, spray treatment of tomato plants; conditions: tomato gray mold, spray treatment
# [3] = tested on: grape downy mildew fungus (Plasmopara viticola); test: Test Example G: grape downy mildew, spray treatment of grape plants; conditions: grape downy mildew, 250 ppm spray, 7 to 10 days after inoculation
# [4] = tested on: barley powdery mildew fungi (Blumeria graminis f. sp. hordei); test: Test Example D: barley powdery mildew, spray treatment of barley plants; conditions: barley powdery mildew, spray treatment
# [5] = tested on: cabbage Alternaria sooty spot fungi (Alternaia brassicicola); test: Test Example C: cabbage Alternaria sooty spot, spray treatment of cabbage plants; assay type: in vivo; conditions: cabbage Alternaria sooty spot, spray treatment
# From the text: [Test Example C] Cabbage Alternaria Sooty Spot
# Test plants (cabbage variety: Shikidori) were cultivated until the cotyledons extended after the sowing of seeds.
# <Control Value> Control value=100{1−(n/3)}
SMILES,Test E control value [1],Test B control value [2],Test G control value [3],Test D control value [4],Test C control value [5]
CCc1c(-c2ccc(F)cc2Cl)n(-c2ccccc2)cc(C)c1=O [Compound 623],H (H shows the control value of more than 50%),H (H shows the control value of more than 50%),L (L shows the control value of 50% or less),H (H shows the control value of more than 50%),H (H shows the control value of more than 50%)
C#CCOc1ccc(CC)c(-n2cc(C)c(=O)c(C)c2-c2c(F)cccc2F)c1 [Compound 625],H (H shows the control value of more than 50%),H (H shows the control value of more than 50%),L (L shows the control value of 50% or less),H (H shows the control value of more than 50%),H (H shows the control value of more than 50%)
CCc1ccc(OC)cc1-n1cc(Br)c(=O)c(CC)c1-c1c(F)cccc1F [Compound 627],H (H shows the control value of more than 50%),H (H shows the control value of more than 50%),H (H shows the control value of more than 50%),H (H shows the control value of more than 50%),H (H shows the control value of more than 50%)
CCc1ccc(OC)cc1-n1cc(C)c(=O)c(CC)c1-c1c(F)cccc1F [Compound 628],H (H shows the control value of more than 50%),H (H shows the control value of more than 50%),L (L shows the control value of 50% or less),H (H shows the control value of more than 50%),H (H shows the control value of more than 50%)
